Assay results published in the supplement of paper PMC10338343.
± gives the standard deviation. Over roughly 5,500 sequences, “pre-steady-state target cleavage rate” has its median near 0.1; the highest 2% begin near 0.64. This is a selection; strong and weak results do not stand in their true shares.

test system: MIWI (PIWIL1) piRISC loaded with piRNA #2 (30 nt); test: pre-steady-state target cleavage rate (min^-1); MIWI and MILI are mouse PIWI proteins and EfPiwi is from a freshwater sponge; tags in brackets are library labels; higher = faster piRNA-guided slicing of the target; conditions: guide: piRNA #2 5'p-UUAGGUAACCCAGUAGAUCCAGAGGAAUUC; auxiliary factor: 500 nM mouse GTSF1
In short: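 The pre-steady-state cleavage rate was obtained by Cleave-'n-Seq with a burst-and-steady-state fit. A transcribed, DNA-blocked target RNA library (0.1 nM) was mixed with 1 nM active affinity-purified piRISC carrying one synthetic guide, with or without 500 nM GTSF1 partner protein, in HEPES–potassium acetate buffer at 33 °C for 0–8 or 0–960 min. Uncleaved targets were sequenced and normalised to depth and to weakly complementary targets, with three trials pooled and k3 capped at 0.0001 min^-1.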

Sequence | pre-steady-state target cleavage rate
CUUAAGGAGAGGAUCUACUGGGUCUACCUAA | 0.00756 ± 0.0024
CUAUUCCUCUGGAUCAACUCGGUUACCUAA | 0.103 ± 0.02
GAAUUCCUCUCGGAUCUACUGGGUUACCUAA | 0.442 ± 0.048
CAUUUCCUCUGGAUCUACUGGGUAACCUAA | 0.259 ± 0.043
CUUAAGGUCAGGAUCUACUGGGUUUCCUAA | 0.0082 ± 0.0039
CUUUUCCUCUGGAUCUACUGGGUUAUCUAA | 0.477 ± 0.057
CUUAUCCUCUGGAUCUAUUGGGUUACCUAA | 0.252 ± 0.042
CUUAAGGUCUGGAACUACUGGGUUACGUAA | 0.318 ± 0.063
CUUAAGCUCAGGAUCUACUGGGUUACCUUA | 0.25 ± 0.034
CUAAUCCUGUGGAUCUACUGGGUUACCUAA | 0.427 ± 0.055
CAUUACCUCUGGAUCUACUGGGUUACCUAA | 0.404 ± 0.051
CUUAAGGUCUGGAUCUACAGGGUUACCAAA | 0.132 ± 0.017
CAAUUCCUCUGGAUCUACUGGGAAUCCUAA | 0.211 ± 0.069
CUUAAGGACUGGAUCUACUGGGUUACCUGA | 0.0361 ± 0.02
CUUAAGGUCCGGAUCUACUGGGUUACCUAA | 0.12 ± 0.032
GAAUUCCUCUGGUUCUACUGGGUUACCAAA | 0.427 ± 0.085
CUUAAGGUCUGGAUCUACUGGCUUACCUAA | 0.0659 ± 0.016
GAAUUCCUCAGCAUCUACUGGGUUACCUAA | 0.472 ± 0.034
CUUAAGGUGUGGAUCUACUGGGUUACGUAA | 0.321 ± 0.056
CUUAACCUCUGGAUCUACUGUGUUACCUAA | 0.597 ± 0.045
CUUUUCCUCUGGAUCUACUGGGUUACCUGAA | 0.269 ± 0.075
CUUUUCCUCGUGGAUCUACUGGGUUACCUAA | 0.148 ± 0.027

Sequence | pre-steady-state target cleavage rate
GAAUUGCUCUGGAUCUACUGCGUUACCUAA | 0.21 ± 0.044
CUUAAGGUCUGGAUCUACUGCGUUAGCUAA | 0.0776 ± 0.033
CUUAAGGUCUGCAUCUACUGGGAUACCUAA | 0.0624 ± 0.019
CUUAAGCUCUCGAUCUACUCGGUUACCUAA | 0.0891 ± 0.008
CUUAAGGCCUGGAUCUACUGGGUUACCUAA | 0.172 ± 0.013
CAAUUCCUCUGGAUCAACUGCGUUACCUAA | 0.563 ± 0.076
CAAUUCCUCUGGAUGUACUGGGUUACGUAA | 0.588 ± 0.047
CUUAUCCUGUGGAUCAACUGGGUUACCUAA | 0.291 ± 0.036
CUAUUCCUCUGGUUCUACUCGGUUACCUAA | 0.125 ± 0.011
CUUAAGCUCUGGAUCUACUGGGUUACCGAA | 0.0806 ± 0.021
CAAUUCCUCUGGUUGUACUGGGUUACCUAA | 0.556 ± 0.048
GAAUUCCUCUGGAUCAUCUGGGUUACCUAA | 0.25 ± 0.032
CUUAAGGAGUGGAUCUUCUGGGUUACGUAA | 0.0237 ± 0.012
CUUAAGGACUGGAUCUACUGGGUUACCUGAA | 0.0284 ± 0.019
CUAUUCCUCUGGAUCUAGUGGGUAACCUAA | 0.0443 ± 0.012
CAAUUGCUCUGGAUCUACAGGGUUACCUAA | 0.124 ± 0.013
CUUUUCCUCUGGAUCAAGUGGGUUACCUAA | 0.00851 ± 0.0027
CUAUUCCUCUGGAUGUAGUGGGUUACCUAA | 0.0853 ± 0.015
CUUUUCGUCUGGAUCUACUGGGUUUCCUAA | 0.301 ± 0.035
CUAAUCCUCUGCAUCUACUGGGUUACCUAA | 0.436 ± 0.032
CUUAUCCUCUGGUUCUACUCGGUUACCUAA | 0.134 ± 0.012
CUUAAGGUUUGGAUCUACUGGGUUACCUAA | 0.362 ± 0.045

Sequence | pre-steady-state target cleavage rate
GAAUUCCUCGGGAUCUACUGGGUUACCUAA | 0.206 ± 0.055
GAAUUCCUCUCGAUCUACAGGGUUACCUAA | 0.408 ± 0.03
CUUAAGGUCUCGUUCUACUGGGUUACCUAA | 0.017 ± 0.006
CUUAAGGAGUGGAUGUACUGGGUUACCUAA | 0.0723 ± 0.027
CUUAAGGAGAGGAUUUACUGGGUUACCUAA | 0.00456 ± 0.003
CUAUUCCUCUGGAUGUACUGGGUUACCAAA | 0.413 ± 0.042
CUAUUGCUCUGGAUCUUCUGGGUUACCUAA | 0.0988 ± 0.023
CUUAAGGAGUGGAUCUACUGGGUUACCCUAA | 0.043 ± 0.016
CUAUUCCUCUGGAUCUUCUGGGUUACCUAA | 0.412 ± 0.054
CUUAACCUCUGGAUCUACUGGGUUACCGAA | 0.136 ± 0.028
CUUAACCUCUGGAUCUACGGGGUUACCUAA | 0.0478 ± 0.0075
CUUUUCCUCUGGAUCUUCUGGGUUUCCUAA | 0.166 ± 0.038
GAAUUCCUCUGGAUCUACAGGGUUUCCUAA | 0.157 ± 0.025
CUUUUCCUCUGGAUCUACCGGGUUACCUAA | 0.143 ± 0.013
CUAUUCCUCUGGAUCUACUGGGUUAGCCUAA | 0.51 ± 0.063
CAAUUCCUCAUGGAUCUACUGGGUUACCUAA | 0.537 ± 0.059
CAAUUCCUCUGGAUCUACUGCGUUUCCUAA | 0.136 ± 0.034
CUUAAGGAGAGCAUCUACUGGGUUACCUAA | 0.00512 ± 0.0034
CUUUUCCUCUGCUUCUACUGGGUUACCUAA | 0.432 ± 0.039
CUAUUCCUUGGAUCUACUGGGUUACCUAA | 0.48 ± 0.034
CUAUUCCUCUGGAUCUACUGGGUUACCUAG [g2:g28:cont:t1G] | 0.441 ± 0.056
CUUAACCUCUGCAUCUACUGGGUUACGUAA | 0.168 ± 0.02

Sequence | pre-steady-state target cleavage rate
CUUAACGUCUGGAUCUACUGGGUUAGCUAA | 0.15 ± 0.018
CUUAUCCUCUGCAUCUACUGGGUUAGCUAA | 0.224 ± 0.028
CUUUUCCUCUGGUUCUACUGGGUUACGUAA | 0.504 ± 0.053
CAAUUCCUCUGGAUCUACUGGGCUUACCUAA | 0.0762 ± 0.024
CUUAAGGUGUGGUUCUACUGGGUUACCUAA | 0.0635 ± 0.011
CUUAAGCUCGGGAUCUACUGGGUUACCUAA | 0.0941 ± 0.038
CUUUUCCUCUGGAUCUUACUGGGUUACCUAA | 0.00337 ± 0.0032
CAAUUCCUCUCGAUCUACUGGGUUACGUAA | 0.885 ± 0.061
CUUAUCCUCUGGAUGUACUGCGUUACCUAA | 0.419 ± 0.083
CUAUUCCUGUGGAUCUACAGGGUUACCUAA | 0.294 ± 0.024
CUUAAGGAGACCUAGUUCUGGCUUACCUAA | < 0.0001
CUUAACCUCUGGAUCUACUGGGUUACCUGAA | 0.0816 ± 0.025
CUUAAGCUCUGGAUCCACUGGGUUACCUAA | 0.0429 ± 0.0074
GAAUUCCUCUGGAUCUACUGGGUUACCCAA | 0.341 ± 0.12
CUUUUCCUCUGGAUCUUCUGGGUAACCUAA | 0.0537 ± 0.011
CUUAACCUCUGGAUCUACUGGGUUAGGUAA | 0.0297 ± 0.007
CAAUUCCUCUGGAUCUACUGGGUUACCUCA | 0.329 ± 0.048
GAAUUCCUCUCGAUCUACUGGCUUACCUAA | 0.113 ± 0.017
CAAAUCCUCUGGAUCUACUGCGUUACCUAA | 0.563 ± 0.067
